{"source": "the supplement of paper PMC10126150", "note": "Sequences with one replicate were seen in a single cluster, so their values are uncertain.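 Also: ATP exposure 15 min at 22 °C before imaging.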"}
{"tested_on": "ATP", "test": "switch fluorescence ratio, 500 uM ATP over buffer (Cy3 cluster intensity, sum of 5 cycles each) (fold (ratio)); higher = stronger signal-on switching upon ATP binding; sequences stand for … in TCGTCGGCAGCGTCAGATGTGTATAAGAGACAGTTTTTTTTTTTTTTTTTTTTTTTTT…TC", "conditions": "aptamer strand: ATP DNA aptamer (quencher-CACCTGGGGGAGTATTGCGGAGGAAGG + anchor), 100 nM annealed; ATP concentration: 500 uM; one replicate", "outline": "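Cy3-labelled switching-strand clusters on a modified Illumina MiSeq flow-cell were annealed to 100 nM quencher-labelled ATP aptamer, imaged in selection buffer, then imaged after 15 min with 500 uM ATP at 22 °C. Five buffer/ATP cycles ran, with NaOH stripping and re-annealing between them. The fluorescence ratio is summed target-cycle over summed buffer-cycle Cy3 intensity per cluster, averaged per switch-domain sequence. Clusters outside 100-1000 RFU were excluded.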"}
{"sequence": "GCCAGATGTT", "switch fluorescence ratio": 0.953}
{"sequence": "GCCAGCCGCA", "switch fluorescence ratio": 1.08}
{"sequence": "GCCAGCGTTT", "switch fluorescence ratio": 1.01}
{"sequence": "GCCAGGTGCT", "switch fluorescence ratio": 0.993}
{"sequence": "GCCAGGTGTT", "switch fluorescence ratio": 3.53}
{"sequence": "GCCAGTGATC", "switch fluorescence ratio": 0.998}
{"sequence": "GCCAGTGTA", "switch fluorescence ratio": 1.02}
{"sequence": "GCCATCCTCA", "switch fluorescence ratio": 1.12}
{"sequence": "GCCATGGAAC", "switch fluorescence ratio": 1.02}
{"sequence": "GCCATGTCTG", "switch fluorescence ratio": 0.986}
{"sequence": "GCCATGTGAG", "switch fluorescence ratio": 0.996}
{"sequence": "GCCATTCTTT", "switch fluorescence ratio": 0.964}
{"sequence": "GCCATTTCTA", "switch fluorescence ratio": 0.973}
{"sequence": "GCCATTTTTA", "switch fluorescence ratio": 0.983}
{"sequence": "GCCCAGCCCG", "switch fluorescence ratio": 0.998}
{"sequence": "GCCCATCTTC", "switch fluorescence ratio": 0.984}
{"sequence": "GCCCCAGACA", "switch fluorescence ratio": 1.04}
{"sequence": "GCCCCCAAAC", "switch fluorescence ratio": 1.13}
{"sequence": "GCCCCTCTGA", "switch fluorescence ratio": 0.987}
{"sequence": "GCCCCTTAAT", "switch fluorescence ratio": 0.974}
{"sequence": "GCCCGATCAG", "switch fluorescence ratio": 0.978}
{"sequence": "GCCCGATCTG", "switch fluorescence ratio": 1.04}
{"sequence": "GCCCGCCTGG", "switch fluorescence ratio": 1.15}
{"sequence": "GCCCGGGGGT", "switch fluorescence ratio": 1.02}
{"sequence": "GCCCGGGTAG", "switch fluorescence ratio": 1.09}
{"sequence": "GCCCTAGAGT", "switch fluorescence ratio": 1.06}
{"sequence": "GCCCTATACG", "switch fluorescence ratio": 1.02}
{"sequence": "GCCCTGATGA", "switch fluorescence ratio": 0.985}
{"sequence": "GCCCTGCTA", "switch fluorescence ratio": 1}
{"sequence": "GCCCTGTAAC", "switch fluorescence ratio": 1.05}
{"sequence": "GCCCTTATCT", "switch fluorescence ratio": 0.995}
{"sequence": "GCCGAACCTT", "switch fluorescence ratio": 1.04}
{"sequence": "GCCGAATATT", "switch fluorescence ratio": 1.02}
{"sequence": "GCCGACAACC", "switch fluorescence ratio": 1.15}
{"sequence": "GCCGACCGCG", "switch fluorescence ratio": 1.06}
{"sequence": "GCCGACGAAT", "switch fluorescence ratio": 1.21}
{"sequence": "GCCGACGCCG", "switch fluorescence ratio": 1.22}
{"sequence": "GCCGACTGGG", "switch fluorescence ratio": 0.996}
{"sequence": "GCCGAGACGA", "switch fluorescence ratio": 1.08}
{"sequence": "GCCGATATTT", "switch fluorescence ratio": 1.05}
{"sequence": "GCCGATGCCC", "switch fluorescence ratio": 1.09}
{"sequence": "GCCGATGTGT", "switch fluorescence ratio": 1}
{"sequence": "GCCGCGATTT", "switch fluorescence ratio": 1.46}
{"sequence": "GCCGCTCCGC", "switch fluorescence ratio": 1.62}
{"sequence": "GCCGCTGTAT", "switch fluorescence ratio": 1.19}
{"sequence": "GCCGGACGA", "switch fluorescence ratio": 1}
{"sequence": "GCCGGAGTCA", "switch fluorescence ratio": 1.02}
{"sequence": "GCCGGCGTTC", "switch fluorescence ratio": 1.01}
{"sequence": "GCCGGGGCCG", "switch fluorescence ratio": 0.929}
{"sequence": "GCCGGTTGAC", "switch fluorescence ratio": 1.03}
{"sequence": "GCCGGTTTCC", "switch fluorescence ratio": 0.977}
{"sequence": "GCCGGTTTGC", "switch fluorescence ratio": 0.982}
{"sequence": "GCCGTAAGG", "switch fluorescence ratio": 0.947}
{"sequence": "GCCGTACATT", "switch fluorescence ratio": 1.06}
{"sequence": "GCCGTATGTC", "switch fluorescence ratio": 0.964}
{"sequence": "GCCGTCAGGG", "switch fluorescence ratio": 1.01}
{"sequence": "GCCGTGGAGG", "switch fluorescence ratio": 1.05}
{"sequence": "GCCGTTGACG", "switch fluorescence ratio": 0.992}
{"sequence": "GCCGTTTTCA", "switch fluorescence ratio": 1.02}
{"sequence": "GCCTAAAGC", "switch fluorescence ratio": 0.963}
{"sequence": "GCCTAACGAA", "switch fluorescence ratio": 1.01}
{"sequence": "GCCTAACGTG", "switch fluorescence ratio": 1.01}
{"sequence": "GCCTACTCCC", "switch fluorescence ratio": 1.05}
{"sequence": "GCCTATACA", "switch fluorescence ratio": 1.05}
{"sequence": "GCCTATGGGG", "switch fluorescence ratio": 1.01}
{"sequence": "GCCTATTAAG", "switch fluorescence ratio": 0.989}
{"sequence": "GCCTCAACTC", "switch fluorescence ratio": 1.05}
{"sequence": "GCCTCAATCC", "switch fluorescence ratio": 1.53}
{"sequence": "GCCTCAGGGC", "switch fluorescence ratio": 1.01}
{"sequence": "GCCTCCTCGT", "switch fluorescence ratio": 1.2}
{"sequence": "GCCTCGTGAG", "switch fluorescence ratio": 0.995}
{"sequence": "GCCTGAATAT", "switch fluorescence ratio": 1.02}
{"sequence": "GCCTGAGAGT", "switch fluorescence ratio": 0.962}
{"sequence": "GCCTGAGGTC", "switch fluorescence ratio": 0.992}
{"sequence": "GCCTGATACC", "switch fluorescence ratio": 1.06}
{"sequence": "GCCTGATAG", "switch fluorescence ratio": 0.978}
{"sequence": "GCCTGCTCAC", "switch fluorescence ratio": 1.12}
{"sequence": "GCCTGGTACG", "switch fluorescence ratio": 1.04}
{"sequence": "GCCTGTAGCA", "switch fluorescence ratio": 1.06}
{"sequence": "GCCTGTAGGG", "switch fluorescence ratio": 1.01}
{"sequence": "GCCTGTTATT", "switch fluorescence ratio": 1.01}
{"sequence": "GCCTTAAGGC", "switch fluorescence ratio": 1}
{"sequence": "GCCTTACGGG", "switch fluorescence ratio": 1.02}
{"sequence": "GCCTTAGCT", "switch fluorescence ratio": 0.999}
{"sequence": "GCCTTGACGT", "switch fluorescence ratio": 1.07}
{"sequence": "GCCTTTACTA", "switch fluorescence ratio": 1.03}
{"sequence": "GCCTTTAGAA", "switch fluorescence ratio": 1.04}
{"sequence": "GCGAAAAACA", "switch fluorescence ratio": 0.997}
{"sequence": "GCGAAACGGC", "switch fluorescence ratio": 1.16}
{"sequence": "GCGAAGGTTT", "switch fluorescence ratio": 1.02}
{"sequence": "GCGAAGTTAC", "switch fluorescence ratio": 1.56}
{"sequence": "GCGAATCATT", "switch fluorescence ratio": 0.997}
{"sequence": "GCGACAAGA", "switch fluorescence ratio": 1.44}
{"sequence": "GCGACATTTC", "switch fluorescence ratio": 1.02}
{"sequence": "GCGACCCGGT", "switch fluorescence ratio": 1.18}
{"sequence": "GCGACCGGTC", "switch fluorescence ratio": 1.02}
{"sequence": "GCGACGACGC", "switch fluorescence ratio": 1.63}
{"sequence": "GCGACGCCTA", "switch fluorescence ratio": 1.42}
{"sequence": "GCGACTCTGG", "switch fluorescence ratio": 0.987}
{"sequence": "GCGACTGTA", "switch fluorescence ratio": 1.02}
